The list shows a part of the results.
How the values were obtained:
Test in all cases: glycan array binding signal (z-score within array); higher = stronger binding
Details in all cases: glycan notation: IUPAC condensed, linker removed
[1] = molecular target: Gal(b1-4)GlcNAc(b1-6)GalNAc
Procedure, shortened: (§1)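 Columns mapping to the same glycan were averaged after glycan names were converted to IUPAC-condensed notation. The data come from 3228 arrays in the Consortium for Functional Glycomics database, limited to those with an available protein sequence. Binding is reported as a within-array Z-score averaged across arrays of one protein sequence and across linkers.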

[2] = molecular target: Gal(b1-4)GlcNAc(b1-6)[Gal(b1-3)]GalNAc
Procedure, shortened: as §1

[3] = molecular target: Gal(b1-4)GlcNAc(b1-6)[Gal(b1-4)GlcNAc(b1-3)]GalNAc
Procedure, shortened: as §1

Gal(b1-4)GlcNAc6P = molecular target: Gal(b1-4)GlcNAc6P
Procedure, shortened: as §1

Gal(b1-6)Gal = molecular target: Gal(b1-6)Gal
Procedure, shortened: as §1

Gal3S(b1-3)GalNAc = molecular target: Gal3S(b1-3)GalNAc
Procedure, shortened: as §1

Gal3S(b1-3)GlcNAc = molecular target: Gal3S(b1-3)GlcNAc
Procedure, shortened: as §1

[4] = molecular target: Gal3S(b1-3)[Fuc(a1-4)]GlcNAc
Procedure, shortened: as §1

Gal3S(b1-4)Glc = molecular target: Gal3S(b1-4)Glc
Procedure, shortened: as §1

Gal3S(b1-4)Glc6S = molecular target: Gal3S(b1-4)Glc6S
Procedure, shortened: as §1

Gal3S(b1-4)GlcNAc = molecular target: Gal3S(b1-4)GlcNAc
Procedure, shortened: as §1

[5] = molecular target: Gal3S(b1-4)[Fuc(a1-3)]Glc6S
Procedure, shortened: as §1

[6] = molecular target: Gal3S(b1-4)[Fuc(a1-3)]GlcNAc
Procedure, shortened: as §1

[7] = molecular target: Gal3S(b1-4)[Fuc(a1-3)]GlcNAc6S
Procedure, shortened: as §1

Gal3S4S(b1-4)GlcNAc = molecular target: Gal3S4S(b1-4)GlcNAc
Procedure, shortened: as §1

Gal3S6S(b1-4)GlcNAc = molecular target: Gal3S6S(b1-4)GlcNAc
Procedure, shortened: as §1

Gal3S6S(b1-4)GlcNAc6S = molecular target: Gal3S6S(b1-4)GlcNAc6S
Procedure, shortened: as §1

Gal4S(b1-4)GlcNAc = molecular target: Gal4S(b1-4)GlcNAc
Procedure, shortened: as §1

Gal4S6S(b1-4)GlcNAc = molecular target: Gal4S6S(b1-4)GlcNAc
Procedure, shortened: as §1

Gal6P(b1-4)GlcNAc = molecular target: Gal6P(b1-4)GlcNAc
Procedure, shortened: as §1

Gal6S(b1-3)GlcNAc = molecular target: Gal6S(b1-3)GlcNAc
Procedure, shortened: as §1

Gal6S(b1-3)GlcNAc6S = molecular target: Gal6S(b1-3)GlcNAc6S
Procedure, shortened: as §1

Gal6S(b1-4)Glc = molecular target: Gal6S(b1-4)Glc
Procedure, shortened: as §1

Gal6S(b1-4)Glc6S = molecular target: Gal6S(b1-4)Glc6S
Procedure, shortened: as §1

Gal6S(b1-4)GlcNAc = molecular target: Gal6S(b1-4)GlcNAc
Procedure, shortened: as §1

Gal6S(b1-4)GlcNAc6S = molecular target: Gal6S(b1-4)GlcNAc6S
Procedure, shortened: as §1

GalNAc(a1-3)Gal = molecular target: GalNAc(a1-3)Gal
Procedure, shortened: as §1

GalNAc(a1-3)GalNAc = molecular target: GalNAc(a1-3)GalNAc
Procedure, shortened: as §1

[8] = molecular target: GalNAc(a1-3)GalNAc(b1-3)Gal(a1-4)Gal(b1-4)Glc
Procedure, shortened: as §1

[9] = molecular target: GalNAc(a1-3)GalNAc(b1-3)Gal(a1-4)Gal(b1-4)GlcNAc
Procedure, shortened: as §1

GalNAc(b1-3)Gal = molecular target: GalNAc(b1-3)Gal
Procedure, shortened: as §1

[10] = molecular target: GalNAc(b1-3)Gal(a1-4)Gal(b1-4)GlcNAc
Procedure, shortened: as §1

[11] = molecular target: GalNAc(b1-3)Gal(a1-4)Gal(b1-4)GlcNAc(b1-3)Gal(b1-4)Glc
Procedure, shortened: as §1

[12] = molecular target: GalNAc(b1-3)Gal(a1-6)Gal(b1-4)Glc
Procedure, shortened: as §1

GalNAc(b1-3)GalNAc = molecular target: GalNAc(b1-3)GalNAc
Procedure, shortened: as §1

GalNAc(b1-3)GlcNAc = molecular target: GalNAc(b1-3)GlcNAc
Procedure, shortened: as §1

GalNAc(b1-4)Gal(b1-4)Glc = molecular target: GalNAc(b1-4)Gal(b1-4)Glc
Procedure, shortened: as §1

GalNAc(b1-4)GlcNAc = molecular target: GalNAc(b1-4)GlcNAc
Procedure, shortened: as §1

B1: PX15618A-bth-503-24-503 (Bacteroides thetaiotaomicron) (protein)
chain: NKSEDKLSGDDFWAQGNETNAEAFLLSIYNSFRNATMSQRPFLTYSGDMRCAPITAYSTGDKYVAYLANNDMGELRNTYPDDARGGLIMQWDVFYTAIQDANILLAEIDKVPGMDELKRSRFKAEAIFMRSLSYFFIVRAFGDVPYYTNAYNEAPLPRTNMVIVLQNCLADLQPLLDDDPGAEVLPWSYSSYSSKGIRASRGSVIALMMHINLWLVQFDAQNKEQYYRNVVSLGEELERNNGAYSLLDINRSSVIFAGGSDEGLFEIAQNINFNEIFMMNAKFSDNVSYSCLNKSMPLFCYSGDYLMTLFPMYEDDARKELWFDEKIYSTSVSSSAPKEIKKFWNIDTYGNGTITSNSGNQIVFRYAGALLLYAEALAALGTNDTKACELLNRVRNRAHASEINTSGSELMDAIFWERCRELIGEGHYYYDLVRTGKVYNRNYCMNPMTRTNFNVGAWTWPIHRNALKNNTQIGLNLFWE
- glycan array binding signal (z-score) [1]: -0.209
- glycan array binding signal (z-score) [2]: -0.622
- glycan array binding signal (z-score) [3]: -0.3
- glycan array binding signal (z-score) (Gal(b1-4)GlcNAc6P): 0.481
- glycan array binding signal (z-score) (Gal(b1-6)Gal): -0.39
- glycan array binding signal (z-score) (Gal3S(b1-3)GalNAc): -0.337
- glycan array binding signal (z-score) (Gal3S(b1-3)GlcNAc): -0.228
- glycan array binding signal (z-score) [4]: -0.063
- glycan array binding signal (z-score) (Gal3S(b1-4)Glc): -0.362
- glycan array binding signal (z-score) (Gal3S(b1-4)Glc6S): -0.24
- glycan array binding signal (z-score) (Gal3S(b1-4)GlcNAc): 0
- glycan array binding signal (z-score) [5]: -0.345
- glycan array binding signal (z-score) [6]: -0.052
- glycan array binding signal (z-score) [7]: 0.663
- glycan array binding signal (z-score) (Gal3S4S(b1-4)GlcNAc): -0.763
- glycan array binding signal (z-score) (Gal3S6S(b1-4)GlcNAc): 3.43
- glycan array binding signal (z-score) (Gal3S6S(b1-4)GlcNAc6S): -0.637
- glycan array binding signal (z-score) (Gal4S(b1-4)GlcNAc): -0.744
- glycan array binding signal (z-score) (Gal4S6S(b1-4)GlcNAc): 0.007
- glycan array binding signal (z-score) (Gal6P(b1-4)GlcNAc): -0.181
- glycan array binding signal (z-score) (Gal6S(b1-3)GlcNAc): -0.189
- glycan array binding signal (z-score) (Gal6S(b1-3)GlcNAc6S): 0.358
- glycan array binding signal (z-score) (Gal6S(b1-4)Glc): 0.311
- glycan array binding signal (z-score) (Gal6S(b1-4)Glc6S): 0.559
- glycan array binding signal (z-score) (Gal6S(b1-4)GlcNAc): 0.345
- glycan array binding signal (z-score) (Gal6S(b1-4)GlcNAc6S): -0.45
- glycan array binding signal (z-score) (GalNAc(a1-3)Gal): 0.872
- glycan array binding signal (z-score) (GalNAc(a1-3)GalNAc): -0.657
- glycan array binding signal (z-score) [8]: -0.52
- glycan array binding signal (z-score) [9]: -0.025
- glycan array binding signal (z-score) (GalNAc(b1-3)Gal): -0.131
- glycan array binding signal (z-score) [10]: 0.057
- glycan array binding signal (z-score) [11]: 0.79
- glycan array binding signal (z-score) [12]: -0.587
- glycan array binding signal (z-score) (GalNAc(b1-3)GalNAc): -0.605
- glycan array binding signal (z-score) (GalNAc(b1-3)GlcNAc): 1.02
- glycan array binding signal (z-score) (GalNAc(b1-4)Gal(b1-4)Glc): 0.391
- glycan array binding signal (z-score) (GalNAc(b1-4)GlcNAc): -0.273

Reference: the supplement of paper PMC8728848
